Patent US20090175866A1, “TREATMENT OF B-CELL MALIGNANCIES” (priority 2004, published 2009)

Legend:
[1] = molecular target: T1, FGFR3 (Homo sapiens, UniProt P22607); test: Affinity and Koff to FGFR3 measured by BIAcore; type: binding
[2] = molecular target: T1, FGFR3; test: FGFR3 domain specificity of binding

T1 sequence (P22607 23-806): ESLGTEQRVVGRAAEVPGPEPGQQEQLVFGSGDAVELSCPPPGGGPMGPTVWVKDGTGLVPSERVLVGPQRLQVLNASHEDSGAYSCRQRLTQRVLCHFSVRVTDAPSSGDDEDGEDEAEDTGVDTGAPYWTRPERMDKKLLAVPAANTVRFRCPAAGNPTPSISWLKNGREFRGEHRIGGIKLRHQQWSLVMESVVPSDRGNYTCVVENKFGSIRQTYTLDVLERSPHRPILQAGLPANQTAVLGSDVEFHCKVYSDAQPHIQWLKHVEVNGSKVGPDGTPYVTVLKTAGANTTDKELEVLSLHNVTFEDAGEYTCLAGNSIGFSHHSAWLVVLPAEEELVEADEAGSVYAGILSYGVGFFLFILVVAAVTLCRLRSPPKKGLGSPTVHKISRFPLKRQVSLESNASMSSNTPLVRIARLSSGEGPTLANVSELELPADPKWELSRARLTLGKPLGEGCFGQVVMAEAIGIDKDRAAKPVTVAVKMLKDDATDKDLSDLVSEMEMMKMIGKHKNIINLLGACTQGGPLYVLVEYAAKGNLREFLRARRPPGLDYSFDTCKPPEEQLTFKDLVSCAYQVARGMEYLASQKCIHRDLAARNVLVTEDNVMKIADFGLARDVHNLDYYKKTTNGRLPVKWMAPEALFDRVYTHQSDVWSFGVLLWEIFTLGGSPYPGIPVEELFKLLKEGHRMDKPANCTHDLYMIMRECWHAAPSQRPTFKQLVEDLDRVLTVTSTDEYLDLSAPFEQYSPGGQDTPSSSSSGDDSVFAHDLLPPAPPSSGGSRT

| Molecule | Kd [1] | FGFR3 Domain Specificity [2] |
| --- | --- | --- |
| PRO-021: HuCAL anti-FGFR3 clone; VH-CDR3 SEQ ID NO:4, VL-CDR3 SEQ ID NO:13 (antibody, V domains shown) VH: QVQLVQSGAEVKKPGSSVKVSCKASGGTFSSYAISWVRQAPGQGLEWMGGIIPIFGTANYAQKFQGRVTITADESTSTAYMELSSLRSEDTAVYYCARDNWFKPFSDVWGQGTLVTVSS VL: DIVMTQSPDSLAVSLGERATINCRSSQSVLYSSNNKNYLAWYQQKPGQPPKLLIYWASTRESGVPDRFSGSGSGTDFTLTISSLQAEDVAVYYCQQYDSIPYTFGQGTKVEIKRT | 9 nM | 3c |
| PRO-024: HuCAL anti-FGFR3 clone; VH-CDR3 SEQ ID NO:5, VL-CDR3 SEQ ID NO:14 (antibody, V domains shown) VH: QVQLVQSGAEVKKPGSSVKVSCKASGGTFSSYAISWVRQAPGQGLEWMGGIIPIFGTANYAQKFQGRVTITADESTSTAYMELSSLRSEDTAVYYCARVNHWTYTFDYWGQGTLVTVSS VL: DIVLTQSPATLSLSPGERATLSCRASQSVSSSYLAWYQQKPGQAPRLLIYGASSRATGVPARFSGSGSGTDFTLTISSLEPEDFATYYCQQMSNYPDTFGQGTKVEIKRT | 10 nM | 3c |
